In the BET-seq Pho4 binding data (Le et al. 2018):
The list shows a part of the results. These are noisy estimates, calculated here from bound and input reads.

Each sequence was assayed against T1, Pho4 (S. cerevisiae) (UniProt P07270) (assay: relative binding free energy (BET-seq); higher = weaker binding). Settings: reference: library average.
T1 sequence: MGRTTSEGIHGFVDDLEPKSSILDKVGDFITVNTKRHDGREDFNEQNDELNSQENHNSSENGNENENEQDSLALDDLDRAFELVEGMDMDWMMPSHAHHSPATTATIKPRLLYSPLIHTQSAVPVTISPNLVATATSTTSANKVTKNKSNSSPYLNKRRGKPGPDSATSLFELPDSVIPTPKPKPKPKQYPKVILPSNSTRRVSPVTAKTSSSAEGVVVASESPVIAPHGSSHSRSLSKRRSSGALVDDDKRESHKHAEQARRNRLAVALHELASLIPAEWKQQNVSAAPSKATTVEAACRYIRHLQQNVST
GGTTCCACGTGGTAGG was tested, and the “relative binding free energy” value was 0.09 kcal/mol.
For CTTGTCACGTGTATGT, the “relative binding free energy” value was 0.04 kcal/mol.
For GGTCCCACGTGGGGGT, the “relative binding free energy” value was -0.25 kcal/mol.
AAGGTCACGTGTGGCT was tested, and the “relative binding free energy” value was 0.16 kcal/mol.
GAGCGCACGTGGGCTT was tested, and the “relative binding free energy” value was -0.09 kcal/mol.
In the case of TAAGTCACGTGGACGT, the “relative binding free energy” value is reported as 0.08 kcal/mol.
With ATAGGCACGTGTGATA the “relative binding free energy” value was -0.03 kcal/mol.
With GAGATCACGTGCTTGG the “relative binding free energy” value was 0.24 kcal/mol.
In the case of TTACTCACGTGTGAGT, the “relative binding free energy” value is reported as 0.23 kcal/mol.
For CATGGCACGTGTTAGT, the “relative binding free energy” value was -0.14 kcal/mol.
With GGAGCCACGTGGCTGT the “relative binding free energy” value was -0.1 kcal/mol.
TTTAGCACGTGGGCGG was tested, and the “relative binding free energy” value was -0.13 kcal/mol.
TTAACCACGTGGGTTG was tested, and the “relative binding free energy” value was -0.32 kcal/mol.
With CTCGTCACGTGTTGAG the “relative binding free energy” value was 0.2 kcal/mol.
With AGTGTCACGTGCAGTG the “relative binding free energy” value was 0.02 kcal/mol.
In the case of CAGGACACGTGGTAGT, the “relative binding free energy” value is reported as -0.01 kcal/mol.
GGATACACGTGTCGGA was tested, and the “relative binding free energy” value was 0.17 kcal/mol.
In the case of TGTAGCACGTGTGATT, the “relative binding free energy” value is reported as -0.09 kcal/mol.
With TTTAGCACGTGTAAGT the “relative binding free energy” value was 0.12 kcal/mol.
TATGCCACGTGGGTGC was tested, and the “relative binding free energy” value was -0.27 kcal/mol.
In the case of TCTGACACGTGTTAGA, the “relative binding free energy” value is reported as 0.21 kcal/mol.
For GACTGCACGTGGAAGT, the “relative binding free energy” value was 0.25 kcal/mol.
For GTGTGCACGTGGAGCG, the “relative binding free energy” value was 0.03 kcal/mol.
In the case of GCGGGCACGTGAGGTG, the “relative binding free energy” value is reported as 0.21 kcal/mol.
TCGTTCACGTGGTTGT was tested, and the “relative binding free energy” value was 0.22 kcal/mol.
AAGTTCACGTGGATTG was tested, and the “relative binding free energy” value was 0.24 kcal/mol.
With CTTGGCACGTGGGAGA the “relative binding free energy” value was -0.14 kcal/mol.
TGAGCCACGTGGGTTT was tested, and the “relative binding free energy” value was -0.08 kcal/mol.
TATAACACGTGGTGTC was tested, and the “relative binding free energy” value was -0.16 kcal/mol.
With AGAACCACGTGGTGGG the “relative binding free energy” value was -0.21 kcal/mol.
With TCTTTCACGTGGGAAT the “relative binding free energy” value was 0.26 kcal/mol.
For GGATTCACGTGATCGG, the “relative binding free energy” value was 0.38 kcal/mol.
In the case of CGTGCCACGTGGTAGG, the “relative binding free energy” value is reported as -0.24 kcal/mol.
ATAATCACGTGCGTTT was tested, and the “relative binding free energy” value was 0.15 kcal/mol.
TGGGGCACGTGATATC was tested, and the “relative binding free energy” value was -0.08 kcal/mol.
In the case of GCGGTCACGTGATGAG, the “relative binding free energy” value is reported as 0.24 kcal/mol.
With TTGATCACGTGAATGG the “relative binding free energy” value was 0.44 kcal/mol.
In the case of GATTTCACGTGTGCGA, the “relative binding free energy” value is reported as 0.38 kcal/mol.
In the case of GGTAACACGTGCGTGG, the “relative binding free energy” value is reported as -0.01 kcal/mol.
In the case of AAGGCCACGTGGGTGT, the “relative binding free energy” value is reported as -0.3 kcal/mol.
In the case of GGTTGCACGTGACGGA, the “relative binding free energy” value is reported as 0.22 kcal/mol.
In the case of TGGTGCACGTGATAGG, the “relative binding free energy” value is reported as 0.02 kcal/mol.
In the case of AGAGGCACGTGTGTCG, the “relative binding free energy” value is reported as -0.05 kcal/mol.
With ATATGCACGTGGTACT the “relative binding free energy” value was -0.15 kcal/mol.
AGTTCCACGTGTAATG was tested, and the “relative binding free energy” value was 0.21 kcal/mol.
In the case of ATTATCACGTGTAGTG, the “relative binding free energy” value is reported as 0.13 kcal/mol.
For GTACACACGTGGGGAT, the “relative binding free energy” value was 0.05 kcal/mol.
GGGTTCACGTGGGTTG was tested, and the “relative binding free energy” value was 0.23 kcal/mol.
In the case of GGTGTCACGTGGACAG, the “relative binding free energy” value is reported as 0.15 kcal/mol.
CTAGTCACGTGGGCGG was tested, and the “relative binding free energy” value was -0.02 kcal/mol.
TCTGACACGTGGAGGT was tested, and the “relative binding free energy” value was 0.01 kcal/mol.
With GCTGACACGTGATGGT the “relative binding free energy” value was 0.24 kcal/mol.
With TTTTCCACGTGATATA the “relative binding free energy” value was 0.14 kcal/mol.
GTATACACGTGGCGAG was tested, and the “relative binding free energy” value was 0.06 kcal/mol.
With TGGTTCACGTGAATGG the “relative binding free energy” value was 0.4 kcal/mol.
In the case of TTATGCACGTGCGTCG, the “relative binding free energy” value is reported as -0.11 kcal/mol.
With GCATTCACGTGTTAGG the “relative binding free energy” value was 0.16 kcal/mol.
In the case of AGGTTCACGTGAGGCA, the “relative binding free energy” value is reported as 0.33 kcal/mol.
With AGTTACACGTGCATAT the “relative binding free energy” value was 0.16 kcal/mol.
GAGTGCACGTGTGGAG was tested, and the “relative binding free energy” value was -0.05 kcal/mol.
For TTAAACACGTGTGAGA, the “relative binding free energy” value was 0.1 kcal/mol.
In the case of GGGTCCACGTGAAGTG, the “relative binding free energy” value is reported as 0.19 kcal/mol.
With GCGTTCACGTGAGAGG the “relative binding free energy” value was 0.48 kcal/mol.
In the case of AGTTTCACGTGGACGG, the “relative binding free energy” value is reported as 0.18 kcal/mol.
GATTACACGTGATATG was tested, and the “relative binding free energy” value was 0.22 kcal/mol.
In the case of TTATTCACGTGTTGAC, the “relative binding free energy” value is reported as 0.31 kcal/mol.
For TACTACACGTGGGTTT, the “relative binding free energy” value was -0.05 kcal/mol.
TGTTACACGTGAATAG was tested, and the “relative binding free energy” value was 0.22 kcal/mol.
In the case of TTTAGCACGTGAGTAT, the “relative binding free energy” value is reported as 0.08 kcal/mol.
GTTTGCACGTGATAAA was tested, and the “relative binding free energy” value was 0.21 kcal/mol.
In the case of GTTAGCACGTGGGATC, the “relative binding free energy” value is reported as 0.04 kcal/mol.
In the case of ATCGGCACGTGAGTGG, the “relative binding free energy” value is reported as 0 kcal/mol.
With TTGTTCACGTGTGGCC the “relative binding free energy” value was 0.26 kcal/mol.
TGGGCCACGTGAAGAG was tested, and the “relative binding free energy” value was 0.04 kcal/mol.
AAGTACACGTGTAGAG was tested, and the “relative binding free energy” value was 0.05 kcal/mol.
With TTATTCACGTGAAGGG the “relative binding free energy” value was 0.36 kcal/mol.
In the case of TGTCGCACGTGAGGCG, the “relative binding free energy” value is reported as 0.22 kcal/mol.
TTGTCCACGTGGTAGG was tested, and the “relative binding free energy” value was 0 kcal/mol.
GCGGACACGTGGGCGT was tested, and the “relative binding free energy” value was 0.02 kcal/mol.
In the case of AGAAGCACGTGTGGAG, the “relative binding free energy” value is reported as 0.05 kcal/mol.
With GTCTTCACGTGATAGT the “relative binding free energy” value was 0.34 kcal/mol.
With TTGTTCACGTGCTAGA the “relative binding free energy” value was 0.21 kcal/mol.
GATTTCACGTGGGGAA was tested, and the “relative binding free energy” value was 0.2 kcal/mol.
TGCTGCACGTGAAGTT was tested, and the “relative binding free energy” value was 0.2 kcal/mol.
In the case of CGTTGCACGTGGTGGA, the “relative binding free energy” value is reported as -0.1 kcal/mol.
In the case of AAGTTCACGTGTGTAA, the “relative binding free energy” value is reported as 0.25 kcal/mol.
For GGGTACACGTGAGTAT, the “relative binding free energy” value was 0.33 kcal/mol.
With AAATCCACGTGTGTGG the “relative binding free energy” value was 0.25 kcal/mol.
For GCGATCACGTGTTTTT, the “relative binding free energy” value was 0.36 kcal/mol.
With GTAATCACGTGAGGTT the “relative binding free energy” value was 0.27 kcal/mol.
In the case of TATGTCACGTGATGAT, the “relative binding free energy” value is reported as 0.11 kcal/mol.
TAACGCACGTGTGTAG was tested, and the “relative binding free energy” value was -0.02 kcal/mol.
GTAGGCACGTGTCGTT was tested, and the “relative binding free energy” value was -0.1 kcal/mol.
In the case of GGTTTCACGTGCGAGT, the “relative binding free energy” value is reported as 0.38 kcal/mol.
TGAATCACGTGTTAAG was tested, and the “relative binding free energy” value was 0.11 kcal/mol.
In the case of ACAGTCACGTGGAAGG, the “relative binding free energy” value is reported as 0.15 kcal/mol.
For TGTTTCACGTGTCGGT, the “relative binding free energy” value was 0.37 kcal/mol.
In the case of ATTGTCACGTGTGGTG, the “relative binding free energy” value is reported as 0.23 kcal/mol.
With AGACGCACGTGATGTG the “relative binding free energy” value was -0.12 kcal/mol.
In the case of GTGGACACGTGATCGG, the “relative binding free energy” value is reported as 0 kcal/mol.
In the case of TTTTGCACGTGGTCGC, the “relative binding free energy” value is reported as -0.19 kcal/mol.
With ATTTGCACGTGAGCTG the “relative binding free energy” value was 0.14 kcal/mol.
In the case of AATGACACGTGATGTA, the “relative binding free energy” value is reported as 0.04 kcal/mol.
For CGGGCCACGTGGGGCG, the “relative binding free energy” value was -0.24 kcal/mol.
With GAGGACACGTGTATGG the “relative binding free energy” value was -0.09 kcal/mol.
With GGGGGCACGTGCCAAG the “relative binding free energy” value was -0.18 kcal/mol.
TGTTGCACGTGGTGAT was tested, and the “relative binding free energy” value was 0.03 kcal/mol.
For ATCTGCACGTGTTGAT, the “relative binding free energy” value was 0.06 kcal/mol.
In the case of ATTATCACGTGTTTAC, the “relative binding free energy” value is reported as 0.14 kcal/mol.
GGGAGCACGTGAGTAG was tested, and the “relative binding free energy” value was 0.18 kcal/mol.
AGAAACACGTGGAAGT was tested, and the “relative binding free energy” value was 0.24 kcal/mol.
In the case of ATTAACACGTGATATT, the “relative binding free energy” value is reported as 0.1 kcal/mol.
For AGGAACACGTGGCTTT, the “relative binding free energy” value was 0.12 kcal/mol.
In the case of GGTGTCACGTGTTGTC, the “relative binding free energy” value is reported as 0.18 kcal/mol.
With GTGTGCACGTGCGCAT the “relative binding free energy” value was -0.1 kcal/mol.
